# In all, about 390,000 compounds went through this assay and about 1,400 (0.36%) were called active. Inconclusive results, whose numbers are uncertain, are shown with a selection of clear calls. Calls follow the shape of the dose curve; as a rule, active = well fitted inhibition curve with a large enough effect; inconclusive = small, poorly fitted or top-dose-only effect; inactive = no such curve, though single readings can be large or run the other way. Potencies beside an inconclusive call are fits to weak or partial responses and may not hold up.
# Target: Flap endonuclease 1 (Homo sapiens) (UniProt P39748)
# UniProt P39748, sequence (P39748 whole entry, looked up): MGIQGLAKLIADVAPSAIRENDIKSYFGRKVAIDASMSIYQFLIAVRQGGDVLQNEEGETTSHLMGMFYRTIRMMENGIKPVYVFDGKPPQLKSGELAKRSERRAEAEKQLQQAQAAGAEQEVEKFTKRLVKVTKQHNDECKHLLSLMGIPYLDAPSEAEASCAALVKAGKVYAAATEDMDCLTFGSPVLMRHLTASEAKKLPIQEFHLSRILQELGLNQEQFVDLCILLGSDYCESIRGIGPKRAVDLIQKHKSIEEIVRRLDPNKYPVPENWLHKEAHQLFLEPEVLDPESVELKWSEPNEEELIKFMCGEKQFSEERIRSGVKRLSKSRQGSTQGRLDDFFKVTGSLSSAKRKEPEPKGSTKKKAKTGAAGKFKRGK
# Assay: qHTS Assay for the Inhibitors of Human Flap endonuclease 1 (FEN1). Also: nearly all actives have a fitted effect of over 65% in size.
# Details: Recombinant FEN1 flap cleavage, fluorescence, 15 min; series mostly up to 114 µM
# How it was run: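 Reaction started by adding substrate (50 nM final) to 10 nM enzyme after 15 min room-temperature compound preincubation. Reads at 0 and 15 min, with data normalized and fitted to a four-parameter Hill equation.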
# Potency is read from the fitted curve at half-maximal effect; tags tell the direction and shape of the fitted curve.
row,Compound,Potency
1,O=C(NCc1ccccc1)C1=C[C@@H](c2ccc(Br)cc2)C[C@@H](OCCCCO)O1,inactive
2,CC(C)Cn1nc(NC(=O)c2cccs2)c2cc3ccccc3nc21,"inconclusive: 20 µM [inhibitor, partial curve]"
3,Cc1ccc(OCC(=O)N(Cc2ccc(N(C)C)cc2)CC2CCCO2)cc1C (configuration not stated),inactive
4,COc1cc2c(NC3CCN(C)CC3)nc(N3CCCN(C)CC3)nc2cc1OCCCN1CCCCC1,active: 22.4 µM
5,COc1cc(/C=N/NC(=O)c2ccc(CN3C(=O)c4cccc5cccc3c45)cc2)cc(OC)c1O,"inconclusive: 25.1 µM [inhibitor, full curve, poor fit]"
6,CCOc1ccc(C(=O)Nc2c(C)nc(Nc3ccccc3)nc2Nc2ccccc2)cc1OCC,"inconclusive: 89.1 µM [inhibitor, single point]"
7,CCOC(=O)N1CCN(C2=C(NS(=O)(=O)c3ccc(C)cc3)C(=O)c3ccccc3C2=O)CC1,"inconclusive: 31.6 µM [inhibitor, partial curve, poor fit]"
8,Cc1ccccc1NC(=O)Cc1nc(COC(=O)c2cc([N+](=O)[O-])ccc2NCCO)cs1,"inconclusive: 79.4 µM [inhibitor, partial curve, poor fit]"
9,CCCN1C(=O)c2[nH]nc(-c3ccc(F)cc3)c2C1c1ccc(O)c(OCC)c1 (configuration not stated),inactive
10,N#CCC(CNc1ncc(C(F)(F)F)cc1Cl)OC(=O)c1ccc(Cl)cc1 (configuration not stated),"inconclusive: 79.4 µM [inhibitor, partial curve, poor fit]"
11,Cc1ccc(CS(=O)Cc2ccc(C(=O)N3CCN(c4ccc(F)cc4)CC3)o2)cc1 (configuration not stated),inactive
12,COc1ccccc1Nc1c2c(nc3ccc(NC(=O)/C=C/c4cc(OC)c(OC)c(OC)c4)cc13)CCCC2,"inconclusive: 8.91 µM [inhibitor, partial curve, poor fit]"
13,Cc1ccc2cc(/C=N/Nc3ccc(C(=O)O)cc3)c(Cl)nc2c1,"inconclusive: 89.1 µM [inhibitor, single point]"
14,COc1ccccc1C1NC(=O)CCC1[N+](=O)[O-] (configuration not stated),"inconclusive: 89.1 µM [inhibitor, partial curve, poor fit]"
15,Cn1c2ccccc2c2cc([N+](=O)[O-])ccc21,"inconclusive: 79.4 µM [inhibitor, partial curve]"
16,COc1cc(NC(=O)c2cc3nc(-c4ccc(C)cc4)cc(C(F)(F)F)n3n2)cc(OC)c1OC,inactive
17,Cc1nnc(Sc2cc(NCCO)c([N+](=O)[O-])c3nonc23)s1,active: 39.8 µM
18,O=C1CC(=O)N(Cc2ccco2)C(=O)N1,active: 28.2 µM
19,CCOc1cc(N2CCOCC2)c(OCC)cc1NS(=O)(=O)c1ccc(Cl)s1,inactive
20,O=C(NCCCc1nc2ccccc2n1CCCCOc1ccccc1)C1CCCCC1,inactive
21,COc1ccc(CNS(=O)(=O)c2ccc3c(c2)NC(=O)C(C)C(=O)N3)cc1 (configuration not stated),inactive
22,COc1cc(NC(=O)CSc2nnc3c(n2)[nH]c2ccc(S(=O)(=O)NC(C)C)cc23)cc(OC)c1OC,inactive
23,O=[N+]([O-])c1ccccc1/C=C/C=N/n1c(-c2cc(-c3ccccc3)n[nH]2)n[nH]c1=S,"inconclusive: 50.1 µM [inhibitor, partial curve, poor fit]"

row,Compound,Potency
1,C(=C\c1nccc2c1[nH]c1ccccc12)/c1ccccc1,"inconclusive: 35.5 µM [inhibitor, partial curve, poor fit]"
2,CCCCCCCCNS(=O)(=O)CCNCc1ccccc1OC,"inconclusive: 50.1 µM [inhibitor, partial curve, poor fit]"
3,CCN(CC)CCSc1nnc2c3cc(C)ccc3n(Cc3ccccc3)c2n1,"inconclusive: 56.2 µM [inhibitor, partial curve, poor fit]"
4,Cc1cc(NS(=O)(=O)c2ccc(NC(=O)COc3ccc(Br)cc3)cc2)nc(C)n1,"inconclusive: 100 µM [inhibitor, single point]"
5,CCN(CCC#N)c1ccc(/C=C/c2ccnc3ccccc23)cc1,"inconclusive: 79.4 µM [inhibitor, partial curve, poor fit]"
6,Cc1cc(C)cc(NC(=O)C2CCN(C(=O)c3cnn(-c4ccccc4)c3-n3cccc3)CC2)c1,inactive
7,CCc1ccc(S(=O)(=O)/N=C2/C=C(Sc3ncn[nH]3)C(=O)c3ccccc32)cc1,active: 79.4 µM
8,CS(=O)(=O)N(CC(=O)Nc1ccc(CC#N)cc1)c1ccc(C23CC4CC(CC(C4)C2)C3)cc1,inactive
9,O=S(=O)(Nc1c(O)ccc2ccccc12)c1ccccc1,"inconclusive: 25.1 µM [inhibitor, full curve, poor fit]"
10,Cc1ccc(CN2C(=O)C(=O)c3cc(Br)cc(C)c32)cc1,"inconclusive: 17.8 µM [inhibitor, full curve, poor fit]"
11,Cc1cc(C(=O)NCCN2CCCCC2C)n(-c2ccccc2)n1 (configuration not stated),"inconclusive: 39.8 µM [inhibitor, single point]"
12,Cn1nc(-c2ccc(OCC(=O)Nc3ccc(Cl)cc3)cc2)c2ccccc2c1=O,"inconclusive: 31.6 µM [inhibitor, full curve]"
13,COc1ccc(-c2cc(-c3c(O)c(OC)c4occc4c3OC)[nH]n2)cc1OC,"inconclusive: 79.4 µM [inhibitor, partial curve, poor fit]"
14,O=C(O)c1ccccc1NS(=O)(=O)c1cccc(-n2sc3ccccc3c2=O)c1,active: 89.1 µM
15,COc1ccc(-c2nnc(Nc3ccc(OC)c(C(N)=O)c3)c3ccccc23)cc1,"inconclusive: 79.4 µM [inhibitor, partial curve]"
16,O=c1oc2ccc(Cl)cc2nc1/C=C(\O)c1ccco1,"inconclusive: 50.1 µM [inhibitor, partial curve, poor fit]"
17,S=C(c1ccc(N2CCOCC2)cc1)N1CCOCC1,inactive
18,Cc1cnn(CCC(=O)NNC(=S)NCC(C)C)c1,inactive
19,Cc1ccc2[nH]c(=O)c3cc(C(=O)NCCN4CCN(C)CC4)sc3c2c1,"inconclusive: 31.6 µM [inhibitor, single point]"
20,COc1ccc(CC(=O)Nc2cc(-c3nc4cccnc4s3)ccc2C)cc1,inactive
21,CCN1/C(=C/c2ccc3cc(C)cc(C)c3[n+]2CC)Sc2cc(C)ccc21,"inconclusive: 12.6 µM [inhibitor, full curve, poor fit]"
22,CN(C)S(=O)(=O)c1cccc(NC(=S)N/N=C/c2cc(Br)ccc2O)c1,"inconclusive: 79.4 µM [inhibitor, partial curve, poor fit]"
23,Cc1ccc(C)c(Nc2nc3c(S(=O)(=O)c4ccc(Br)cc4)nnn3c3ccsc23)c1,"inconclusive: 44.7 µM [inhibitor, partial curve]"

row,Compound,Potency
1,O=C(NCc1ccco1)c1c2c(nc3ccccc13)CCC2,"inconclusive: 89.1 µM [inhibitor, single point]"
2,Cc1cccc(OCCOc2ccccc2C=C(C#N)C#N)c1,"inconclusive: 89.1 µM [inhibitor, partial curve, poor fit]"
3,Cn1c(SCC(=O)NC2CCCC2)nnc1-c1ccccn1,inactive
4,COc1ccc2nc3ccccc3nc2c1,"inconclusive: 50.1 µM [inhibitor, partial curve, poor fit]"
5,O=C(NCCN1C(=O)S/C(=C\c2cccs2)C1=O)c1ccco1,inactive
6,COC(=O)C[C@H]1c2cc(F)ccc2S(=O)(=O)N1C1CC1,inactive
7,COc1cccc2c(C)c(C(=O)O)[nH]c12,"inconclusive: 50.1 µM [inhibitor, partial curve]"
8,O=[N+]([O-])c1cc(CN2CCN(c3cccc(C(F)(F)F)c3)CC2)c2cccnc2c1O,"inconclusive: 17.8 µM [inhibitor, full curve]"
9,O=C(Cc1ccc2c(c1)OCCO2)c1c(O)cc(O)cc1O,inactive
10,CCOC(=O)c1nn(-c2ccc(F)cc2)c(C)c1C(C)=O,inactive
11,COc1ccc(CN(C)C2CCCCC2)cc1,inactive
12,O=C(O)c1ccc(N/N=C/c2ccc(-c3cccc(Cl)c3)o2)cc1,"inconclusive: 79.4 µM [inhibitor, partial curve, poor fit]"
13,COc1ccc(/C=N\NC(=O)c2cc3c(ccc4ccccc43)o2)cc1O,"inconclusive: 50.1 µM [inhibitor, partial curve]"
14,CCN(CC(=O)Nc1c(F)cccc1F)C(=O)/C=C/c1ccc2ccccc2n1,active: 50.1 µM
15,COC(=O)c1c(C)c(OC(=O)c2c(C)cc(O)c(C=O)c2O)cc(C)c1O,"inconclusive: 79.4 µM [inhibitor, single point]"
16,CCn1c(C(=O)Nc2c(C)cccc2C)cc2sc(Cl)cc21,inactive
17,CCn1c2ccc(F)cc2c2nc3ccccc3nc21,"inconclusive: 56.2 µM [inhibitor, partial curve, poor fit]"
18,COc1ccccc1CNCCCCCCNCCCCCCCCNCCCCCCNCc1ccccc1OC,"inconclusive: 37.7 µM [inhibitor, partial curve, poor fit]"
19,Cc1ccccc1NS(=O)(=O)c1ccc2[nH]cc(C(=O)NC3CCCCC3)c(=O)c2c1,"inconclusive: 70.8 µM [inhibitor, partial curve, poor fit]"
20,C#Cc1ccc([C@H]2C=C(C(=O)NCc3ccccc3)O[C@@H](OCc3ccc(CO)cc3)C2)cc1,"inconclusive: 79.4 µM [inhibitor, partial curve, poor fit]"
21,CNC(C)C#Cc1ccc2oc3cccc(OC)c3c(=O)c2c1 (configuration not stated),"inconclusive: 25.1 µM [inhibitor, partial curve, poor fit]"
